Here are results for 29 compounds from PubChem BioAssay AID1745853 (National Center for Advancing Translational Sciences (NCATS), 2022).

Holding throughout (experiment): Primary Screen for Target Class Profiling of Small Molecule Inhibitors of Methyltransferases
The target of assay [1] is Glycine N-methyltransferase (Homo sapiens) (UniProt Q14749). The settings on record: purified enzyme, MTase-Glo SAH luminescence; measured here: GNMT inhibition; at 40 µM; stronger effect = lower value. The essentials:
(§1)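 Each enzyme was assayed with SAM and its substrate. SAH formation detected by MTase-Glo luminescence; single-point 40 uM screen[…].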

Assay [2] concerns the target Guanidinoacetate N-methyltransferase (Homo sapiens) (UniProt Q14353). The conditions noted are these: purified enzyme, MTase-Glo SAH luminescence; measured here: GAMT inhibition; at 40 µM; stronger effect = lower value. The essentials: as §1
Assay [3] deals with Histamine N-methyltransferase (Homo sapiens) (UniProt P50135). The settings on record: purified enzyme, MTase-Glo SAH luminescence; measured here: HNMT inhibition; at 40 µM; stronger effect = lower value. In a few lines:
as §1

In assay [4] the target is Nicotinamide N-methyltransferase (Homo sapiens) (UniProt P40261). The conditions noted are these: purified enzyme, MTase-Glo SAH luminescence; measured here: NNMT inhibition; at 40 µM; stronger effect = lower value. In a few lines:
as §1

In assay [5] the target is Phenylethanolamine N-methyltransferase (Homo sapiens) (UniProt P11086). The conditions noted are these: purified enzyme, MTase-Glo SAH luminescence; measured here: PNMT inhibition; at 40 µM; stronger effect = lower value. In a few lines:
as §1

SMILES strings stand for the structures. Values joined by “and” are separate entries in the source; they are usually repeats but may differ in a detail not shown here. Identical values can stand only once. Some of the results follow. Shown are side measurements of this screen, not its main read-out; they come without a call.
On the % scale 0 is the no-effect control and ±100 the full control effect.

For `COc1ccc(NC(=O)Cn2nc3n(Cc4ccc(C)cc4)c(=O)c4ccccc4n3c2=O)cc1OC`, the activity change, negative = inhibition was found to be 3.58% in assay [1]; 1.83% in assay [2]; 11.2% in assay [3]; 9.39% in assay [4]; 6.54% in assay [5].

Turning to `COCCCNc1nc2c(S(=O)(=O)c3cc(C)ccc3C)nnn2c2ccccc12`, the activity change, negative = inhibition in assay [1] is -17%; in assay [2], 4.5%; in assay [3], -1.93%; in assay [4], -4.14%; in assay [5], -7.41%.

As for `COC(=O)CNC(=O)c1cn2cc(-c3cccc(C(F)(F)F)c3)sc2n1`, the activity change, negative = inhibition in assay [1] was -4.25%; in assay [2], -6.71%; in assay [3] it was -2.23%; in assay [4], -15.6%; in assay [5], -9.63%.

For the compound `CC1(O)CC(O)C2C(C(=O)O)=COC(OC3OC(CO)C(O)C(O)C3OC(=O)/C=C/c3ccc(O)cc3)C21` (stereo not given), the activity change, negative = inhibition in assay [1] was 1.17%; in assay [2] it was 5.19%; in assay [3], 1.57%; in assay [4] it was -8.86%; in assay [5] it was 5.51%.

On to `C=C(C)C(=O)O[C@H]1C[C@@](C)(OC(C)=O)[C@@]2(O)CC[C@@](C)(O)[C@H](OC(C)=O)[C@@]23OC(=O)C(COC)=C13`, for which the activity change, negative = inhibition is 0% in assay [1]; 6.01% in assay [2]; 8.83% in assay [3]; -6.01% in assay [4]; 3.19% in assay [5].

Turning to `CCC1c2ccc(C)n2CCN1C(=O)Nc1ccc2c(c1)OCCO2` (stereo not given), the activity change, negative = inhibition was -3.17% in assay [1]; 2.87% in assay [2]; -11% in assay [3]; -3.69% in assay [4]; -4% in assay [5].

Turning to `CCOC(=O)c1cc2n(n1)CC(C)(C(=O)NCCOC)N(c1ccc(Cl)cc1)C2=O` (stereo not given), the activity change, negative = inhibition was found to be 4.81% in assay [1]; 4.49% in assay [2]; 7.42% in assay [3]; 0.491% in assay [4]; 2.22% in assay [5].

In the case of `N#Cc1cccc(C(=O)Nc2ccc([C@H]3OCC(=O)N(Cc4ccc(F)cc4)[C@@H]3CO)cc2)c1`, the activity change, negative = inhibition in assay [1] was -4.8%; in assay [2], -1.62%; in assay [3], -1.17%; in assay [4] it was -4.56%; in assay [5], 0.513%.

For the compound `CCOc1ccc(CCNC(=O)c2cc3n(n2)CC(C)(C(=O)NC2CCCC2)N(CC)C3=O)cc1` (stereo not given), the activity change, negative = inhibition in assay [1] was 8.03%; in assay [2], 1.84%; in assay [3] it was -0.547%; in assay [4], 8.08%; in assay [5], 4.89%.

On to `CCOC(=O)c1ccc2c(c1)[C@@H]1C=CC[C@@H]1[C@H](c1cccc(Cl)c1)N2`, for which the activity change, negative = inhibition in assay [1] was -10.7%; in assay [2] it was -1.09%; in assay [3] it was -13.3%; in assay [4] it was -8.93%; in assay [5], -15.8%.

For `O=C1CCCCC(CNC(=O)c2ccc3ccccc3n2)N1` (stereo not given), the activity change, negative = inhibition in assay [1] was -8.41%; in assay [2], -8.36%; in assay [3], -4.28%; in assay [4], -12.6%; in assay [5], -10.1%.

Take `COc1ccc(C)cc1NS(=O)(=O)c1ccc2c(c1)n(C)c(=O)n2C`: the activity change, negative = inhibition turned out to be 3.95% in assay [1]; 0% in assay [2]; 7% in assay [3]; 6.77% in assay [4]; 1.75% in assay [5].

With `C/C=C/C=C/C=C/C(=O)O[C@@H]1C=C(CO)[C@](O)(CO)[C@@]2(C)CCCC(C)(C)[C@H]12`, the activity change, negative = inhibition in assay [1] is 0%; in assay [2], 1.69%; in assay [3] it was 0.102%; in assay [4], -11.4%; in assay [5], 4.13%.

On to `CN1CCCC1c1nc(C2CN(S(=O)(=O)Cc3ccccc3F)C2)no1` (stereo not given), for which the activity change, negative = inhibition in assay [1] was -5.85%; in assay [2], -9.45%; in assay [3], -4.61%; in assay [4], -16.1%; in assay [5] it was -9.46%.

As for `Cc1ccc(CSc2nnc3n(CC(C)C)c(=O)c4cc(F)ccc4n23)cc1`, the activity change, negative = inhibition turned out to be 4.27% in assay [1]; 4.76% in assay [2]; 8.18% in assay [3]; 1.05% in assay [4]; 2.36% in assay [5].

Take `CCN1CCN(C(=O)Cn2c(=O)oc3cc(S(=O)(=O)N4CC(C)CC(C)C4)ccc32)CC1` (stereo not given): the activity change, negative = inhibition in assay [1] turned out to be 3.25%; in assay [2], 5.58%; in assay [3], 4.65%; in assay [4] it was 13.9%; in assay [5], 1.5%.

For `O=C(c1cc[nH]c1C1CCCNC1)N(Cc1ccc(F)cc1)Cc1cccnc1` (stereo not given), the activity change, negative = inhibition in assay [1] is -5.92%; in assay [2], -7.99%; in assay [3], -35.1%; in assay [4] it was -17.3%; in assay [5], 6.64%.

For the compound `Cc1ccc(Cl)cc1NC(=O)Cn1nc2n(CCC(C)C)c(=O)c3ccccc3n2c1=O`, the activity change, negative = inhibition in assay [1] is 1.61%; in assay [2] it was -1.26%; in assay [3] it was 1.34%; in assay [4] it was -0.091%; in assay [5], -0.632%.

Regarding `O=c1n(CC2CC2)nc2n1CCN(S(=O)(=O)Cc1ccccc1)CC2`, the activity change, negative = inhibition in assay [1] is -3.79%; in assay [2] it was -6.08%; in assay [3] it was -2.82%; in assay [4] it was -6.51%; in assay [5], -12%.

Take `COc1ccc(CC(=O)N[C@H](C)c2onc(C)c2C(=O)O)cc1`: the activity change, negative = inhibition is -0.218% in assay [1]; -2.72% in assay [2]; -1.21% in assay [3]; -3.68% in assay [4]; -3.94% in assay [5].

For `COc1ccc(OC)c(S(=O)(=O)Nc2ccc3c(c2)n(C)c(=O)n3C)c1`, the activity change, negative = inhibition is 12.9% in assay [1]; 1.79% in assay [2]; 5.04% in assay [3]; 1.98% in assay [4]; -4.48% in assay [5].

`O=C1C(SCCO)=C(SCCO)C(=O)c2ccccc21`: the activity change, negative = inhibition in assay [1] was -83.2%; in assay [2], -16.3%; in assay [3], -9.09%; in assay [4], -12.9%; in assay [5], -71.1%.

On to `CNC(=O)Oc1ccc2c(c1)[C@]1(C)CCN(C)[C@@H]1N2C`, for which the activity change, negative = inhibition in assay [1] is 3.71% and 5.88%; in assay [2], 1.07% and 10.6%; in assay [3], 5.56% and 12.9%; in assay [4], -12.5% and -8.1%; in assay [5], 4.82% and -2.63%.

For `CCOc1ccc(CN2C(=O)c3cc(C(=O)OC)nn3CC2(C)C(=O)NC2CCCCC2)cc1` (stereo not given), the activity change, negative = inhibition was -0.204% in assay [1]; 0% in assay [2]; 3.02% in assay [3]; 4.56% in assay [4]; -0.835% in assay [5].

Consider `CC[C@H]1CN(Cc2ccc(OC)cc2O)CC[C@H]1CC(=O)N1CCOCC1`, for which the activity change, negative = inhibition in assay [1] is -0.011%; in assay [2], 1.52%; in assay [3] it was -4.11%; in assay [4], -2.33%; in assay [5], 0.259%.

Take `CC(=O)OCC1(O)CCC2C(COC3OC(CO)C(O)C(O)C3OC(=O)/C=C/c3ccc(O)cc3)=COC(OC(=O)CC(C)C)C21` (stereo not given): the activity change, negative = inhibition in assay [1] is 0%; in assay [2] it was 1.87%; in assay [3] it was 6.36%; in assay [4], -10.7%; in assay [5] it was 4.66%.

Regarding `CC(C)OCCCn1c(=O)c2ccccc2n2c(SCC(=O)Nc3ccc(F)cc3F)nnc12`, the activity change, negative = inhibition in assay [1] is -1.5%; in assay [2], 0%; in assay [3], 2.96%; in assay [4], -6.34%; in assay [5] it was 1.68%.

With `COc1ccc(-c2cc(=O)oc3cc(OCC(=O)Nc4ccc5c(c4)OCO5)ccc23)cc1`, the activity change, negative = inhibition in assay [1] is -3.58%; in assay [2], 0%; in assay [3] it was 4.06%; in assay [4], -0.648%; in assay [5], -1.36%.

For `CCOc1ccccc1CN1CCC2(CCN(C(=O)c3ccccc3C)CC2)Oc2ccccc21`, the activity change, negative = inhibition in assay [1] is -6.3%; in assay [2], -7%; in assay [3] it was -4.62%; in assay [4], -20.6%; in assay [5], -11%.
